The results in this text go back to the RNAGym collection of RNA variant scans (doi:10.1093/nar/gkz1192).

The chains are these.
B1: CPEB3 Ribozyme (parent)
chain: UAACAGGGGGCCACAGCAGAAGCGUUCACGUCGCAGCCCCUGUCAGAUUCUGGUGAAUCUGCGAAUUCUGCUGUAUAUCUC

Read counts are not given, so values of variants with three or more changes are uncertain.

The variants in the series derive from B1. As to the kind of experiment: self-cleavage, relative activity (ratio to wild type); higher = more cleavage; in vitro, sequencing. The essentials: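 Relative activity was defined as the cleaved/total read fraction for a variant divided by the same fraction for the unmutated ribozyme. CPEB3 self-cleaving ribozyme libraries were made by rounds of error-prone PCR, barcoded, and transcribed in vitro with T7 RNA polymerase for 5 hours at 37°C, and cleavage ran through transcription plus a 15 min DNase I step before EDTA. Illumina sequencing of template-switched reverse transcripts gave the reads, and DNA sequencing mapped the barcodes. Averages come from three batches, using variants with at least 5 reads.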
A15G A21G U31C A35U C38G U43A A45G: the self-cleavage was 0.27.

As for A15G C38A U74G, the self-cleavage came out at 0.13. A15G A21G U48C: the self-cleavage stood at 0.22.

In the case of A15G A35U G73A, the self-cleavage was 0.78.

For A15G G30U G33C A47G G73A U80C, the self-cleavage is 0.34. For the variant A15G C32U U49A A65G, the self-cleavage was found to be 0.09. Turning to A15G A57G U60C U80C, the self-cleavage worked out at 0.31. Consider A15G A18U U74C, for which the self-cleavage was determined as 0.35.

As for A15G A18U A20G, the self-cleavage came out at 0.14. As for A15G G33A A45G U51A, the self-cleavage is 0.09.

As to A15G A20U G24A, the self-cleavage was 0.29. For A15G A28C U66C, the self-cleavage is 0.23. On to A15G A18U A45G U74G, for which the self-cleavage is 0.24. Take A15G A21U A35G U48C U60A: the self-cleavage was 0.14. As to A15G C32U U43C U80C, the self-cleavage was 1.15. On to A15G A45U U69C U72A, for which the self-cleavage worked out at 0.13. Regarding A15G A35G U48C U54C, the self-cleavage amounted to 0.26. In the case of A15G A28G A35U, the self-cleavage was found to be 0.25. A15G A28G A35G: the self-cleavage stood at 0.44. A15G A20U G33U U69C U72A U80C: the self-cleavage is 0.05.

As to A15G A35U U41C U60C U67C U74A, the self-cleavage was 0.1. Then A15G A35U U51C, with 0.3; and A15G C27G A28G C40G U69C, with 0.19; and A15G A45G U48C, with 0.47. With A15G A18U U41C U48A U54A, the self-cleavage was found to be 0.08. The result for A15G A28G U72A reads 0.11; that for A15G A28G U72C, 0.97; that for A15G A20G A56U U60C A64U, 0. As to A15G A21U C39A, the self-cleavage was 0.19. Consider A15G G22A U49C A64G U72C U80C, for which the self-cleavage is 0.07. Then A15G A20G U80C, with 0.59. In the case of A15G A21G U41C A45C U51A A77G, the self-cleavage was 0.04. A15G A20G C34U A45G A56G U74C: the self-cleavage worked out at 0.22. A15G A28U C39U U72C: the self-cleavage worked out at 0.75.

For the variant A15G C27A C40U U51A U69C, the self-cleavage was 0.08. As to A15G G16C U25C, the self-cleavage was found to be 0.08. On to A15G G24A A28U U72C, for which the self-cleavage worked out at 0.18. As to A15G C17G A35G U43C U58C A75G, the self-cleavage worked out at 0.09. The result for A15G A21G A65G U72C reads 0.6; that for A15G A20G A28G U60C A65G, 0.26. In the case of A15G A20G U25C U78C, the self-cleavage came out at 0.41. Turning to A15G G42A A56G U69C U80C, the self-cleavage was 0.29. A15G A20G U25C: the self-cleavage is 0.61.

As to A15G A18U U49C U54C A64U, the self-cleavage worked out at 0.16.

Take A15G C34U A45G A47G U51G U58C U72C: the self-cleavage is 0.1. A15G C27U U31C C40U U58A: the self-cleavage turned out to be 0.08. As for A15G A18G U72A, the self-cleavage came to 0.1. The result for A15G A47G A56U reads 0.27; that for A15G A18U C37U A45C U67A, 0.18. A15G A64U U72C: the self-cleavage amounted to 0.36. The result for A15G A20G A35G G61A U80C reads 0.08. The result for A15G A20U A21G C23U A64U U67A reads 0.08. Regarding A15G A18U A21G U31A A57G U80C, the self-cleavage amounted to 0.1. Then A15G A18G U66A, with 0.32; and A15G A28G G46A A47G G52U U80A, with 0.11. The result for A15G C40A U78C reads 0.35; that for A15G A28U U78G, 0.17. For A15G A35U A64U U69C, the self-cleavage came to 0.12. Turning to A15G A35U A45G A64U, the self-cleavage stood at 0.19. The result for A15G A28U U31A reads 0.55; that for A15G G24A C38A U66C, 0.11; that for A15G A20C U80C, 0.47. For the variant A15G G19A U69C G70A, the self-cleavage was found to be 0.1. As to A15G A21G A28G A45U U69A U72A, the self-cleavage was found to be 0.04. For the variant A15G A45G U51A U54C C59A, the self-cleavage was 0.24.

As to A15G G36A U43C U51A U72C A77G, the self-cleavage is 0.09. Take A15G C62U U66C U72C U76C: the self-cleavage was determined as 0.2. In the case of A15G A21U A28G U43C A64U, the self-cleavage was determined as 0.13. With A15G A21G U25C A28U A35C, the self-cleavage was 0.02.

On to A15G A35U U54C A65G A75C U80C, for which the self-cleavage worked out at 0.11. For A15G A18U C39A G46U, the self-cleavage amounted to 0.06. Then A15G C34U G36A U43C A45G, with 0.05. As for A15G G33U A45G U69A, the self-cleavage was found to be 0.06. For the variant A15G A18U C32U A35G U58C, the self-cleavage turned out to be 0.17.

In the case of A15G A35U U74C U80C, the self-cleavage was 0.9. Turning to A15G A18U U51C, the self-cleavage amounted to 0.16. Regarding A15G A18U C23U A47C A56G U60A A65U, the self-cleavage is 0.02.

Regarding A15G A28G U67C U72C, the self-cleavage was 0.11.

As for A15G A35G U54C G61A, the self-cleavage is 0.13. Consider A15G A21G U26A C38G U43A U58A, for which the self-cleavage was 0.06. The result for A15G C29G U41C U51A A57G U72C reads 0.18.

For A15G A20G C50A G55U, the self-cleavage amounted to 0.76. With A15G A20U U25A A47G U54C U72A U78C, the self-cleavage was 0.24.
